# Reference: article PMC4336329 (PLoS ONE, 2015)
# In all, about 310,000 compounds went through this assay and about 2,200 (0.71%) showed an effect of 50% or more. The effect is printed as a negative number. The list shows a part of the results.
# Molecular target: human ether-à-go-go-related gene (hERG) potassium channel (human, UniProt Q12809)
# Experiment: primary screen, population patch clamp on CHO cells stably expressing hERG
# Sequence of human ether-à-go-go-related gene (hERG) potassium channel (Q12809 whole entry, looked up): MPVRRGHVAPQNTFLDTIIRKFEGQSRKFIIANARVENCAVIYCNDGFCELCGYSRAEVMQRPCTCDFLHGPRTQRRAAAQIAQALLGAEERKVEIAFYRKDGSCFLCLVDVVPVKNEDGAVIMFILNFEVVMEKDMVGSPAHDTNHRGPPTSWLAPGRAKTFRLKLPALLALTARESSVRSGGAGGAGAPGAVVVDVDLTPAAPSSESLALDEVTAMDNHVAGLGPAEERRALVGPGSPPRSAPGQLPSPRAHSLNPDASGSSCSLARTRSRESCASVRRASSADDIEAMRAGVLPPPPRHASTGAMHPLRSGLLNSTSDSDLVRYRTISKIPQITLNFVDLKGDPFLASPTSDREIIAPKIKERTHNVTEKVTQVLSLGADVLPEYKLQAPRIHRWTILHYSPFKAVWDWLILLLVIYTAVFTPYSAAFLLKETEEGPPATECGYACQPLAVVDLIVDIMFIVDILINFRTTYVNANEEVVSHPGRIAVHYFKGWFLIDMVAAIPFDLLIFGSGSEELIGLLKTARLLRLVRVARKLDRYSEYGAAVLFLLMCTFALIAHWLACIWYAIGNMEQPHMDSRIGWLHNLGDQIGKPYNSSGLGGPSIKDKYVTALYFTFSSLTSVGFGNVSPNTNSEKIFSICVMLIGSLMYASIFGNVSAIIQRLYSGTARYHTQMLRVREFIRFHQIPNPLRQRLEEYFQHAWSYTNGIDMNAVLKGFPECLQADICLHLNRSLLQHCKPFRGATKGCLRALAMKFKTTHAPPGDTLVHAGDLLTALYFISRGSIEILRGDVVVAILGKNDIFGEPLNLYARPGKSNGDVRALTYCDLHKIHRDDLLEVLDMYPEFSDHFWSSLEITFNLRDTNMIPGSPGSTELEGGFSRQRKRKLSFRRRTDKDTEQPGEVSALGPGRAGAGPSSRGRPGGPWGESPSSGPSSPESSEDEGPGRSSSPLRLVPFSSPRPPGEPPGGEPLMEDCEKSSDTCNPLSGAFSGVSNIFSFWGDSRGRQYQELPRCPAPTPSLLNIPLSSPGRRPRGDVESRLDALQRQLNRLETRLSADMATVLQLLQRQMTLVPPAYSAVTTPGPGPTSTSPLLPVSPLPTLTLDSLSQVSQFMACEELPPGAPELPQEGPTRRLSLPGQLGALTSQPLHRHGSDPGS
row,Compound,"hERG current change (%, negative = inhibition) at 1uM"
1,CC1SC(=NC(=O)c2ccncc2)NC1=O (centres unmarked),15.8%
2,O=c1[nH]cnc2c1nc(SCc1ccccc1)n2C1OC(CO)C(O)C1O (centres unmarked),3.11%
3,CC(C)COc1ccc(C(=O)Nc2ccc(NC(=O)c3ccco3)c(Cl)c2)cc1,12.9%
4,Cc1sc2ncnc(OCC(=O)N3CCN(S(=O)(=O)c4ccc(Cl)cc4)CC3)c2c1C,7.72%
5,COc1ccc(OC)c(-c2cc(C(=O)NCc3cccs3)no2)c1,-0.423%
6,CCOc1ccccc1CNC(=O)C1Cc2cc(S(=O)(=O)N3CCCCC3)ccc2N1C(C)=O (centres unmarked),5.07%
7,CCCn1c(NC(=O)c2ccccc2)nc2ccccc21,-2.01%
8,CCOC(=O)c1[nH]c(C)c(C(=O)Nc2ccc(C)c(F)c2)c1C,9.69%
9,Cc1ccc(S(=O)(=O)CC(=O)Nc2nc3ccccc3s2)cc1,16.7%
10,C=CCN1C(=O)CSc2ccc(C(=O)NC(C)c3ccccc3)cc21 (centres unmarked),10.3%
11,CN(Cc1nc2ccccc2[nH]1)C(=O)C1CCC(=O)N(CCc2cccc(F)c2)C1 (centres unmarked),15.1%
12,O=C(O)/C=C/C(=O)O.c1ccc(CCC2=NCCn3cccc32)cc1,6.02%
13,COc1ccc(NC(=O)CN2CCN(CC(=O)Nc3ccc(F)cc3)CC2)cc1Cl,-88.6%
14,c1cncc(-c2noc(-c3cccc4ccccc34)n2)c1,10.7%
15,Cc1cc(OCCOc2cccc3cccnc23)c(C)cc1Cl,-0.287%
16,COc1ccc2oc(=O)c(C(=O)N3CCN(c4ccc(F)cc4)CC3)cc2c1,-5.38%
17,CC(C)n1cnc2cc(NCc3ccccc3O)ccc21,20%
18,O=C(O)Cn1nc(-c2ccccc2)c2ccccc2c1=O,16.8%
19,O=C(N/N=C/c1c[nH]c2ccccc12)c1ccccc1Cl,5.51%
20,COc1ccccc1CNc1ccc2c(c1)CCC2,9.21%
21,Cc1ccc(NC(=O)NCc2ccccn2)cc1Cl,14.9%
22,Cc1ccc(C)c(C(=O)COC(=O)c2cc([N+](=O)[O-])ccc2NCCO)c1,5.06%
23,Cc1oc(-c2cccs2)nc1CN1CCN(CCC(C)C)C(CCO)C1 (centres unmarked),0.0981%

row,Compound,"hERG current change (%, negative = inhibition) at 1uM"
1,COc1ccc(C2=[N+]([O-])C(C)(C)N(O)C2(C)C)cc1,10.1%
2,Cc1ccc(N2CCN(/N=C/C3=C(N4CCOCC4)C(=C\c4ccccc4)/CC3)CC2)cc1,16.3%
3,Cc1ccc(-n2cc(CN3CCC(O)(c4ccccn4)CC3)c(-c3ccc(F)cc3)n2)cc1,2.68%
4,CCOc1ccc(/C=C/C(=O)CCC(=O)O)cc1,11.6%
5,S=C(Nc1ccc(Oc2ccccc2)cc1)NC1CCCCCC1,10.4%
6,COc1ccccc1N(Cc1ccccc1)S(=O)(=O)c1cccc(C(=O)Nc2cccc(C)n2)c1,11.6%
7,Cc1cc(C)c(C(N)=O)c(Nc2cccc(Cl)c2)n1,12.6%
8,CCCn1c(SCc2cc(=O)[nH]c3ccccc23)nc2c1c(=O)n(C)c(=O)n2C,0.116%
9,Cn1c(N)c(C(=O)CSc2nc3ccccc3n2-c2ccccc2)c(=O)n(C)c1=O,7.99%
10,COc1cc(C(=O)Nc2nccs2)c(Br)c(OC)c1OC,16%
11,CCOC(=O)NC1(C(F)(F)F)NC(=O)N(c2ccc(F)cc2)C1=O (centres unmarked),9.82%
12,Cc1ccc(S(=O)(=O)NCC(=O)OCC(=O)N(Cc2ccccc2)C(C)(C)C)cc1,5.51%
13,CCOC(=O)C1C(=O)C=C(c2ccc(C)cc2)CC1c1ccccc1 (centres unmarked),12.4%
14,CN(C(=O)CSc1nnc(-c2cccc(F)c2)n1N)C1CCS(=O)(=O)C1 (centres unmarked),7.58%
15,Clc1ccc(OCCCn2ccnc2)c(Br)c1.O=C(O)C(=O)O,2.88%
16,COc1ccc(NC(=O)c2cc(S(=O)(=O)N3CCOCC3)cs2)cc1,17.9%
17,N#Cc1ccccc1NC(=O)Nc1cccc(Cl)c1,3.29%
18,O=C(NCc1cccnc1)C1CC(c2ccc(F)cc2)=NO1 (centres unmarked),0.21%
19,O=C(Nc1nnc(C2CC2)o1)c1ccc(S(=O)(=O)N2CCc3ccccc3C2)cc1,3.26%
20,Cn1c(SCc2c(F)cccc2Cl)nnc1-c1cnccn1,11.2%
21,Cc1ccc(Nc2ccc(C(=O)NCCc3ccccc3)cn2)cc1,3.46%
22,Oc1c(/C=N/c2ncn[nH]2)ccc2ccccc12,-4.85%
23,Cc1c(C(=O)C(=O)NCc2ccco2)c2ccccc2n1C,4.06%

row,Compound,"hERG current change (%, negative = inhibition) at 1uM"
1,CC(NC(=O)C1CCCCC1)C(c1cccs1)N1CCOCC1 (centres unmarked),10.9%
2,Clc1ccc(/C=N/N2CCN(Cc3ccccc3)CC2)cc1,15.2%
3,O=C(NC12CC3CC(CC(C3)C1)C2)c1cccnc1Cl,13.3%
4,C/C=C/c1ccc(OCCCCN2CCN(CC)CC2)c(OC)c1.O=C(O)C(=O)O,-2.47%
5,Cc1ccccc1NC(=O)Cc1nc(COC(=O)/C=C/c2ccccc2)cs1,-0.378%
6,O=C(c1cc2ncc(CCCl)cn2n1)N1CCCCCC1,20.3%
7,c1ccc(-c2nc3cccnc3nc2-c2ccccc2)cc1,6.07%
8,Cc1ccc(CNC(=O)CCSCCC(=O)NCc2ccc(C)cc2)cc1,10.4%
9,Cc1cccc(NC(=O)CCC(=O)c2cccs2)n1,18.7%
10,Cc1ccc(S(=O)(=O)N2CCOCC2)cc1NC(=O)CSc1nccn1C,7.91%
11,CC(=O)Nc1cccc(/C(C)=N/NC(=O)c2ccc(NS(=O)(=O)c3cccs3)cc2)c1,5.87%
12,COc1cc(C(=O)n2cnc3ccccc32)c([N+](=O)[O-])cc1OC,12%
13,Cc1cc(C)nc(N/N=C2/CCSc3ccc(F)cc32)n1,8.52%
14,Cc1onc(-c2c(F)cccc2Cl)c1C(=O)Nc1nc2ccccc2[nH]1,6.47%
15,COc1cc2c(c3oc(=O)cc(CC(=O)O)c13)CCC(C)(C)O2,1.4%
16,O=C(Nc1nnc(C2CCCCC2)s1)C1CC(=O)N(c2ccccc2)C1 (centres unmarked),9.99%
17,CC(=O)Nc1ccc(NC(=O)C2CCC(N3C(=O)C4C5C=CC(C6CC56)C4C3=O)CC2)cc1 (centres unmarked),11.5%
18,Cc1cccc(C)c1OCC(=O)N(Cc1ccco1)C1CCS(=O)(=O)C1 (centres unmarked),-3.78%
19,O=C(Oc1ccccc1)c1ccc2nccnc2c1,3.76%
20,NC(=O)CC(NC(=O)Cc1ccc(Br)cc1)c1ccc(N2CCC(N3CCCC3)CC2)c([N+](=O)[O-])c1 (centres unmarked),9.26%
21,Cn1cc(Br)c(-c2cccc(NC(=O)CCC(=O)O)c2)n1,5.72%
22,CCOc1cc2[nH]c(=S)n(Cc3ccc(C(=O)NCCN(CC)CC)cc3)c(=O)c2cc1OCC,12.1%
23,CN1Cc2cccc3c2C(Cc2ccccc2S3)C1.O=C(O)/C=C\C(=O)O (centres unmarked),11.3%

row,Compound,"hERG current change (%, negative = inhibition) at 1uM"
1,Cc1c(NC(=O)c2ccc(CC(C)C)o2)c(=O)n(-c2ccccc2)n1C,14%
2,O=S1(=O)CCN2N=C(C3CC3)SC2=N1,15%
3,COc1cc(NC(=O)COc2cccc3c2OC(C)(C)C3)cc(OC)c1OC,9.18%
4,Nc1nonc1-n1nnc(C(=O)N/N=C/c2ccccc2)c1CN1CCc2ccccc21,12.2%
5,Cc1nc2ncnn2c(C)c1CCC(=O)O,-1.73%
6,Cc1cccc(OCC(=O)NCCCNC(=O)c2ccccn2)c1,5.83%
7,CCOc1ccccc1C(=O)OCC(=O)Nc1cc(Cl)ccc1Oc1ccccc1,7.72%
8,CCOc1ccc(CN2C(=O)c3ccccc3C2=O)cc1C(=O)N1CCC(C(N)=O)CC1,12%
9,Cc1cccc(/C(N)=N/OC(=O)c2ccccc2Cl)c1,2.11%
10,CN1C(=O)C(O)(c2nnc(-c3ccccc3)o2)c2ccccc21 (centres unmarked),8.19%
11,O=C(COC(=O)c1cnccn1)NCCc1ccc(Cl)cc1Cl,9.09%
12,O=C(O)c1cccc(-c2nnn(Cc3ccccc3)n2)c1,13.2%
13,COc1ccccc1C(=O)N/C(=C/c1cccc([N+](=O)[O-])c1)C(=O)Nc1cccc(C(=O)O)c1,14.2%
14,Cc1coc2c1C(=O)C(=O)c1c-2ccc2c(C)cccc12,10%
15,COc1ccc(/C=C2\NC(=O)C(C=NCc3ccccc3)=C2O)cc1,3.4%
16,O=C(CSc1ncccn1)NN=C1CCCCCC1,5.63%
17,Cc1cc(C(=O)CN2C(=O)C(=O)N(Cc3ccccc3)C2=O)c(C)n1CC1COc2ccccc2O1 (centres unmarked),14.3%
18,O=S(=O)(Nc1cccc(Cl)c1)c1ccc2oc(=S)[nH]c2c1,18%
19,Cc1ccc(NS(=O)(=O)c2ccc3c(c2)n(C)c(=O)n3C)cc1,0.0392%
20,CC(C)C1N=C2c3ccccc3N=C(SCC(=O)c3ccc(O)c(O)c3)N2C1=O (centres unmarked),-8.39%
